{"source": "PubChem BioAssay (NCI)", "note": "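Five compound concentrations were applied to cells in 96-well plates for 48 hours; endpoints were derived by simple linear interpolation of the resulting dose-response curve. GI50 is the concentration that inhibits growth by half. TGI marks complete inhibition of growth.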"}
{"tested_on": "NCI-H322M lung", "experiment": "NCI tumour cell line growth inhibition, 48 h", "units": {"GI50": "µM", "TGI": "µM"}}
{"smiles": "Nc1ccc(-c2nnc(SCc3ccc(O)c4ncccc34)n2-c2ccccc2)cc1", "GI50": 0.116, "TGI": "> 100"}
{"smiles": "N/C(=N\\c1nc2c(Br)cccc2s1)C(Br)Br", "GI50": 12.8, "TGI": 34}
{"smiles": "O=C(N/N=C/c1ccc(Br)s1)c1[nH]c2ccc(Br)cc2c1-c1ccccc1", "GI50": 1.71, "TGI": "> 100"}
{"smiles": "COc1cc2c3c(n(CCCNCC4CC4)c(=O)c2cc1OC)-c1cc2c(cc1C3=O)OCO2", "GI50": 4.1, "TGI": 18.3}
